{"source": "patent US9271993B2", "about": "“Treatment of bacterial infectious diseases” (priority 2010, dated 2016)", "key": {"[1]": {"test_system": "deafness 1555G ribosomes", "assay": "Ribosomal drug susceptibility (MIC) of recombinant bacteria", "set-up": "MIC, deafness 1555G ribosomes: unit not given beside the values", "conditions": "for MIC, deafness 1555G ribosomes: Table 7, 72 h incubation; for MIC, bacteria with deafness 1555G ribosome: Table 10", "text": "(§1) A single rRNA allelic strain of Mycobacteriumn smegmatis was used for rRNA mutagenesis (Sander et al., Mol. Microbiol. 1996, 22:841-848). Key nucleotides which distinguish the prokaryotic from the eukaryotic decoding site are rRNA positions 1408 (bacterial ribosome: A, eukaryotic cytosolic ribosomes: G) and 1491 (bacterial ribosomes: G, eukaryotic cytosolic ribosomes: A, eukaryotic mitochondrial ribosomes).\n(§2) Various versions of the eukaryotic drug binding site were transplanted into the bacterial ribosome (WO 2008/092690) to result in hybrid ribosomes, termed mitohybrid ribosomes, cytohybrid ribosomes, deafness 1555G ribosomes, deafness 1494U ribosomes (for methodology, rationale and hybrid ribosomes used, see Hobbie et al., Nucleic Acids Res. 2007, 35:6086-6093; Proc. Natl. Acad. Sci. USA 2008, 105:3244-3249; Proc. Natl. Acad. Sci. USA 2008, 105:20888-20893).\n(§3) Ribosomal drug susceptibility was studied by measuring the minimal inhibitory concentrations, as described in Pfister et al., Animicrob. Agents Chemother. 2003, 47:1496-1502. The recombinants carrying the respective mutational alterations were subjected to determinations of minimal inhibitory concentrations (MIC) to assess ribosomal drug susceptibility.\n(§4) For further detail on methodology see description in Example 7."}, "[2]": {"test_system": "deafness 1494U ribosomes", "assay": "Ribosomal drug susceptibility (MIC) of recombinant bacteria", "set-up": "MIC, deafness 1494U ribosombes: unit not given beside the values", "conditions": "for MIC, deafness 1494U ribosombes: Table 7, 72 h incubation; for MIC, bacteria with deafness 1494U ribosome: Table 10", "text": "as §1, §2, §3, §4"}}, "data": [{"compound": "CNC1C(OC2OC(CO)C(N)C(O)C2O)OC2CC(N)C(OC3C(N)CC(N)C(O)C3O)OC2C1O", "note": "(stereo not drawn) [Apramycin]", "values": [{"measurement": "MIC, deafness 1555G ribosomes", "setting": "[1]", "result": 1024}, {"measurement": "MIC, bacteria with deafness 1555G ribosome", "setting": "[1]", "result": ">256.0", "unit": "µg/mL"}, {"measurement": "MIC, deafness 1494U ribosombes", "setting": "[2]", "result": 1024}, {"measurement": "MIC, bacteria with deafness 1494U ribosome", "setting": "[2]", "result": ">256.0", "unit": "µg/mL"}]}, {"compound": "CC(=O)O.CC(=O)O.CC(=O)O.CC(=O)O.CN[C@@H]1[C@@H](O[C@H]2O[C@H](CO)[C@@H](N)[C@H](O)[C@H]2O)O[C@H]2C[C@@H](NC(=O)[C@@H](O)CCN)[C@@H](O[C@H]3[C@H](O)[C@@H](O)[C@H](N)C[C@@H]3N)O[C@@H]2[C@@H]1O", "note": "[ETH 100, 2′-N-[(2S)-4-Amino-2-hydroxybutyryl]apramycin tetraacetate]", "values": [{"measurement": "MIC, bacteria with deafness 1555G ribosome", "setting": "[1]", "result": ">256.0", "unit": "µg/mL"}, {"measurement": "MIC, bacteria with deafness 1494U ribosome", "setting": "[2]", "result": ">256.0", "unit": "µg/mL"}]}, {"compound": "CC(=O)O.CC(=O)O.CC(=O)O.CC(=O)O.CNC1C(OC2OC(CO)C(N)C(O)C2O)OC2CC(N)C(OC3C(N)CC(NC(=O)C(O)CCN)C(O)C3O)OC2C1O", "note": "[ETH 102, 1-N-[(2S)-4-Amino-2-hydroxybutyryl]apramycin tetraacetate]", "values": [{"measurement": "MIC, bacteria with deafness 1555G ribosome", "setting": "[1]", "result": ">256.0", "unit": "µg/mL"}, {"measurement": "MIC, bacteria with deafness 1494U ribosome", "setting": "[2]", "result": ">256.0", "unit": "µg/mL"}]}, {"compound": "CC(=O)O.CC(=O)O.CC(=O)O.CC(=O)O.CNC1C(OC2OC(CO)C(N)C(O)C2O)OC2CC(NC(=O)C(O)CCN3C(=O)c4ccccc4C3=O)C(OC3C(N)CC(N)C(O)C3O)OC2C1O", "note": "(stereo not drawn) [ETH 103]", "values": [{"measurement": "MIC, bacteria with deafness 1555G ribosome", "setting": "[1]", "result": ">256.0", "unit": "µg/mL"}, {"measurement": "MIC, bacteria with deafness 1494U ribosome", "setting": "[2]", "result": ">256.0", "unit": "µg/mL"}]}, {"compound": "CNC1C(OC2OC(CO)C(NC(=O)C(O)CCN)C(O)C2O)OC2CC(N)C(OC3C(N)CC(N)C(O)C3O)OC2C1O", "note": "[ETH 105, 4″-N-[(2S)-4-Amino-2-hydroxybutyryl]apramycin]", "values": [{"measurement": "MIC, bacteria with deafness 1555G ribosome", "setting": "[1]", "result": ">256.0", "unit": "µg/mL"}, {"measurement": "MIC, bacteria with deafness 1494U ribosome", "setting": "[2]", "result": ">256.0", "unit": "µg/mL"}]}, {"compound": "NC[C@H]1O[C@H](O[C@H]2[C@H](O)[C@@H](O[C@H]3O[C@H](CO)[C@@H](O)[C@H](N)[C@H]3O)[C@H](N)C[C@@H]2N)[C@H](N)C[C@@H]1O", "note": "[Tobramycin]", "values": [{"measurement": "MIC, deafness 1555G ribosomes", "setting": "[1]", "result": 16}, {"measurement": "MIC, deafness 1494U ribosombes", "setting": "[2]", "result": 16}]}, {"compound": "Gentamicin", "values": [{"measurement": "MIC, deafness 1555G ribosomes", "setting": "[1]", "result": 16}, {"measurement": "MIC, deafness 1494U ribosombes", "setting": "[2]", "result": 16}]}, {"compound": "Neomycin", "values": [{"measurement": "MIC, deafness 1555G ribosomes", "setting": "[1]", "result": 8}, {"measurement": "MIC, deafness 1494U ribosombes", "setting": "[2]", "result": 8}]}]}
